Results published in the RNAGym collection of RNA variant scans (doi:10.1073/pnas.2313332121).
Variants at the floor of the assay are shown more often than the library holds them.

B1: TPR 5TU (parent)
chain: GGAUCUUCUCGAUCUAACAAAAAAGACAAAUCUGCCACAAAGCUUGAGAGCAUCUUCGGAUGCAGAGGCGGCAGCCUUCGGUGGCGCGAUAGCGCCAACGUUCUCAACUAUGACACGCAAAACGCGUGCUCCGUUGAAUGGAGUUUAUCAUG

Variants of: B1
Experiment: polymerase ribozyme fitness, log enrichment relative to wild type (log ratio); higher = more active; in vitro selection for triplet polymerase activity
Method in brief: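 Frozen incubation at −7 °C formed the core of a single, triplicate in vitro selection round applied to PCR-built, transcribed mutant libraries of each subunit of a heterodimeric triplet polymerase ribozyme. Extended constructs were gel-excised, captured with streptavidin beads and amplified by RT-PCR, and input and output libraries were Illumina-sequenced with a filter of ≥10 input reads and ≥1 read per output. Fitness is the logarithm of genotype enrichment relative to wild-type enrichment, with inverse-variance-weighted replicate averaging, and the logarithm is base 2.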

Variant	polymerase ribozyme fitness (log ratio)
C27A C54U A66U G67A G86U A115U A138U	≤ -4.2
C27A C54U U56A C87G U109C A122C U127A G141U C149A	≤ -4.2
C27A C69A	≤ -4.2
C27A C79U G92A C103G U135A	≤ -4.2
C27A C85A	≤ -4.2
C27A C85G G88A A142C	≤ -4.2
C27A C85U G133C U145A	≤ -4.2
C27A C85U U101A	≤ -4.2
C27A C87G	≤ -4.2
C27A C87U	-3.91
C27A C95A A122G	≤ -4.2
C27A C95U A98G	≤ -4.2
C27A G34A A60G C95A A107U U130A	≤ -4.2
C27A G34U C103A A137G	≤ -4.2
C27A G34U G88U A122G U146C	≤ -4.2
C27A G42C C99U A113U U146G	≤ -4.2
C27A G58A G84A	≤ -4.2
C27A G62A G70C G94C	≤ -4.2
C27A G65U U146G	≤ -4.2
C27A G81A G94C	≤ -4.2
C27A G81C G124A	≤ -4.2

Variant	polymerase ribozyme fitness (log ratio)
C27A G83A	≤ -4.2
C27A G83A C85A C96U A119U	≤ -4.2
C27A G84U C105G C114A	≤ -4.2
C27A U31C C38U A39U C69U C85A	≤ -4.2
C27A U44A C85A A107C U148C	≤ -4.2
C27A U44G G50U G65A G86U C96A	≤ -4.2
C27A U45A C57G A60U C69A C87U C93U G133C	≤ -4.2
C27A U61A G65A C75U A106U U127A	≤ -4.2
C27A U101G	-3.63
C27G A28G A40C C85U C105U U146A	≤ -4.2
C27G A28G A47C C79U G94C C105A	≤ -4.2
C27G A28G C93G C114U A120U G143U	≤ -4.2
C27G A28U G50U C87G G140C	-3.94
C27G A29C A41C G42A C54A U56A A91U G141A	≤ -4.2
C27G A29C A47C G68A C87G C123U	≤ -4.2
C27G A29C A66G C95U	≤ -4.2
C27G A29C C93U G141C	≤ -4.2
C27G A30C G58U C96U C116G	≤ -4.2
C27G A30U A52G G68A U77A C87G C108A A119C A122U C125G G143C	≤ -4.2
C27G A30U A60G G88U C116U	≤ -4.2
C27G A37G G92C C99A	≤ -4.2

Variant	polymerase ribozyme fitness (log ratio)
C27G A37G G94C G126A	≤ -4.2
C27G A37U A64C G88C A91C A120G A122U U148G	-4.09
C27G A37U U55A U56A G70A G84C C108U	≤ -4.2
C27G A39G C93G G112A C129G	≤ -4.2
C27G A39G G83A G143U	≤ -4.2
C27G A39U G88A A119C G128U U130C	≤ -4.2
C27G A40U C54U G83U U111C C118A G133A	≤ -4.2
C27G A41C A47U C54U G59A U144G	≤ -4.2
C27G A41U U55G C87A U90G U134G G140C C149U	≤ -4.2
C27G A47C G50C U82G A138U	≤ -4.2
C27G A47C U90C	≤ -4.2
C27G A47G A49U C51U C57U G92U C96A A97G A150U	≤ -4.2
C27G A47G C54U G83C G84A G128A	≤ -4.2
C27G A47G G50C G67C G83C G136A	≤ -4.2
C27G A49C G59C C76G	≤ -4.2
C27G A52C U53A A64G C69A U78A C79A C87G G94C C95A A142C	≤ -4.2
C27G A52C U82G	≤ -4.2
C27G A52G G59C A91G C105G U109G U145C	≤ -4.2
C27G A52U C69U C85G	≤ -4.2
C27G A73G C85G	≤ -4.2
C27G A91C C96U C99U A119C A138C U148G	≤ -4.2

Variant	polymerase ribozyme fitness (log ratio)
C27G A91U G94A	≤ -4.2
C27G A107C	≤ -4.2
C27G A137U	≤ -4.2
C27G C32G C36G A73G C93G U135A	-4.18
C27G C32G C36U C85U C125A U148C	≤ -4.2
C27G C32G U45A G65A G92A A106U A122G A137C A138U G152A	≤ -4.2
C27G C36G C85U	≤ -4.2
C27G C43G	≤ -4.2
C27G C43U G71U A91C A137G	≤ -4.2
C27G C51U G70A C72G C87U G141U	≤ -4.2
C27G C54A	-3.98
C27G C57G C118G A142U A147U	≤ -4.2
C27G C57U A91U C95A C131G U134G G140A	≤ -4.2
C27G C63U C75U C93G U145A	≤ -4.2
C27G C75G A98G A121U C131U G141C	≤ -4.2
C27G C75G G86A C118U	≤ -4.2
C27G C75U C79A G94C C96G A98G U104G G133C U145C	≤ -4.2
C27G C76A G81C G86U A91G U101G C108A	≤ -4.2
C27G C79A	≤ -4.2
C27G C79U	≤ -4.2
C27G C85A G92A C96A A106U C123U	≤ -4.2
